According to article PMC4336329 (PLoS ONE, 2015):
Out of some 310,000 compounds screened, about 2,200 (0.71%) showed an effect of 50% or more. The effect is printed as a negative number. Some of the results follow.

molecular target: human ether-à-go-go-related gene (hERG) potassium channel (human, UniProt Q12809); assay: primary screen, population patch clamp on CHO cells stably expressing hERG
Sequence (Q12809 whole entry, looked up): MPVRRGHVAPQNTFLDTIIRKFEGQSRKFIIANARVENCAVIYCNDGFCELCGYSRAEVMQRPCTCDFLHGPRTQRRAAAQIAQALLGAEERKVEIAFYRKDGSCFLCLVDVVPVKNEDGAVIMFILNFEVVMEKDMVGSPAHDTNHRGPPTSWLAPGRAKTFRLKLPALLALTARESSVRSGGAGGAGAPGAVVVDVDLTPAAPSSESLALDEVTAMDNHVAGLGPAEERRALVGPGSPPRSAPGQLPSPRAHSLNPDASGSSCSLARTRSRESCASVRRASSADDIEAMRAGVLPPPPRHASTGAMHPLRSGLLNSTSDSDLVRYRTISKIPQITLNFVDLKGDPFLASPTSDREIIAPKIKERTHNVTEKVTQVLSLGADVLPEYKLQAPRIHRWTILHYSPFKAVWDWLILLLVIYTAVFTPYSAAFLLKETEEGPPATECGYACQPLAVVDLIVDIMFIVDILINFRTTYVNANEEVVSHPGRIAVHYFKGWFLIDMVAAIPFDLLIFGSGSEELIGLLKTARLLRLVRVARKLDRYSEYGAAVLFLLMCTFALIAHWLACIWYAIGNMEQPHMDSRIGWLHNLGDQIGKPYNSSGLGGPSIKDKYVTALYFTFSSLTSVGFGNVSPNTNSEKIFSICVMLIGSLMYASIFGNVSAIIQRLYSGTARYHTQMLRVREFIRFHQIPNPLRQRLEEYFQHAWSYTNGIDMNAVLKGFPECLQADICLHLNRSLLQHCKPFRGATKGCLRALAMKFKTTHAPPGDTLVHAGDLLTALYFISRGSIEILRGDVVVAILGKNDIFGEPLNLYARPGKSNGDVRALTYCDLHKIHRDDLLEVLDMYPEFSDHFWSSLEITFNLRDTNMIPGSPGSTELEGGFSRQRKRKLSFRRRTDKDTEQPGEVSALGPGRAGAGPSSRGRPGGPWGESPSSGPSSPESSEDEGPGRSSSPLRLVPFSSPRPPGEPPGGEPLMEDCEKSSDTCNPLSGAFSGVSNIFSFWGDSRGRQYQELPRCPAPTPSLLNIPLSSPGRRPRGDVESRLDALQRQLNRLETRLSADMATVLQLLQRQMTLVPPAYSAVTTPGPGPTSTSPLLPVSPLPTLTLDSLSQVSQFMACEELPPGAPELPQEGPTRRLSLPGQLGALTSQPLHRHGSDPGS

| SMILES | hERG current change (%, negative = inhibition) at 1uM |
| --- | --- |
| CC(C)CCN(C)c1ccc(/C=N/n2cnnc2)cc1 | 3.22% |
| CCOc1ccccc1NC(=O)C(=O)CC(=O)c1ccc(OC)cc1 | 6.43% |
| COc1ccc(-c2cc(C(F)(F)F)c3c(N)c(C(=O)NCCSC)sc3n2)cc1 | 4.51% |
| Cc1ccc(N(C(C)C(=O)Nc2cc(Cl)ccc2Oc2ccccc2)S(C)(=O)=O)cc1 (centres unmarked) | 14.5% |
| Cc1ccc(C(=O)NC(=S)NCCN2CCOCC2)cc1 | 19.3% |
| Cn1c(=O)c2c(nc(CN3CCCCC3)n2Cc2c(F)cccc2Cl)n(C)c1=O | 12.8% |
| CCCCNC(=O)C1CCN(S(=O)(=O)c2c(C)noc2/C=C\c2ccc(OC)cc2)CC1 | 7.41% |
| CC1CCN(c2nc3ccccc3nc2N2CCC(C)CC2)CC1 | 8.24% |
| COC(=O)c1c(NC(=O)/C=C/C(=O)O)sc(Cc2ccccc2)c1C | -0.673% |
| Cc1cccc[n+]1CC(=O)Nc1ccccc1.[Cl-] | 4.07% |
| CCOC(=O)c1c(NC(=O)c2c(C(=O)O)cccc2[N+](=O)[O-])sc(C)c1C | 19.4% |
| COc1cc(-c2n[nH]c(=O)o2)cc(OC)c1OC | -1.3% |
| O=C(Nc1ccccc1F)c1ccc(COc2ccc(Cl)cc2Cl)o1 | 10.2% |
| N#CCSc1nnc(-c2ccc(F)cc2)n1N | 11.3% |
| COc1cc(NS(=O)(=O)c2c(C)[nH]c(C)c2C(=O)N2CCCC2)cc(OC)c1OC | 5.12% |
| COC(=O)c1ccc(CNC(=O)CNC(=O)c2sc3ccccc3c2Cl)cc1 | 4.38% |
| CC(=O)Nc1nc2cc([N+](=O)[O-])ccc2s1 | 9.96% |
| CN(C)/C=N/c1cc(=O)[nH]c(=O)n1CC1CC1 | 17.1% |
| COCCN1Cc2cccc(C(=O)NCCc3ccccc3)c2C1=O | 14.3% |

| SMILES | hERG current change (%, negative = inhibition) at 1uM |
| --- | --- |
| CCCC1=NN(C(=O)Cc2ccc(OC)cc2)C(O)(C(F)(F)F)C1 (centres unmarked) | 1.22% |
| COC(=O)c1c(NC(=O)CSc2nc3ccccc3c(=O)n2-c2ccccc2)sc(C)c1C | 5.22% |
| COc1ccc(N2C(=O)C3CCCN3C2c2ccccc2OC)cc1 (centres unmarked) | 21% |
| Cc1cc2c(cc1S(=O)(=O)NCCc1ccccc1)NC(=O)CO2 | 0.117% |
| CN(C)CCN(Cc1ccccc1)c1nccc(N(C)C)c1C#N.O.O=C(O)C(=O)O | -0.633% |
| COc1cc2cc(C(=O)N(C)C3CCS(=O)(=O)C3)[nH]c2cc1OC (centres unmarked) | 7.1% |
| CCCCn1c(N)c(N(CC(C)C)C(=O)C2CCN(S(=O)(=O)c3ccc(Cl)cc3)CC2)c(=O)[nH]c1=O | 14.4% |
| CC(C)CCN1CCN(C2CCN(c3ccccc3)CC2)CC1CCO (centres unmarked) | -5.89% |
| CCCCCN(C(=O)CCC(=O)OCCOc1cccc(C)c1)c1c(N)n(CCCC)c(=O)[nH]c1=O | 3.85% |
| COc1cccc(CN2CCNC(=O)C2CC(=O)NC2CCCCC2)c1OC (centres unmarked) | 12.4% |
| Cc1cc(Oc2nc3c(C)cccn3c(=O)c2/C=C(\C#N)S(=O)(=O)c2ccccc2)ccc1Cl | 3.25% |
| Cc1ccc2c(c1)cc(CN(Cc1cccnc1)C(=O)c1ccccc1)c1nnnn12 | -28.4% |
| CC(C)N(C(=O)CS(=O)(=O)c1ccc(Cl)c(Cl)c1)C(C)C | 4.89% |
| CN(C)C(=S)NC(=O)C(c1ccccc1)c1ccccc1 | 3.66% |
| CCCCOc1ccccc1NC(=O)Cn1c(-c2nonc2N)nc2ccccc21 | 7.21% |
| CCOC(=O)c1sc(/S(C)=N\S(=O)(=O)c2cccc(Cl)c2)c2c1CCC=C2 (centres unmarked) | 2.62% |
| CCNc1nc(OC)nc(Oc2ccc(C(=O)OC)cc2)n1 | 13.2% |
| CCN(CC)S(=O)(=O)c1ccc(OC)c(NC(=O)c2cccc([N+](=O)[O-])c2C)c1 | 0.67% |
| CC(=O)N1CCC(N(C(=O)Nc2ccc(F)cc2)C2CCCC2)CC1 | 14.3% |

| SMILES | hERG current change (%, negative = inhibition) at 1uM |
| --- | --- |
| O=S(=O)(c1ccc2ccccc2c1)N(CC1CO1)c1ccccc1 (centres unmarked) | 8.85% |
| COc1ccc(NC(=O)c2cc(S(=O)(=O)N3CCOCC3)cn2C)c(OC)c1 | 9.62% |
| COc1ccc(C(=O)Nc2ccc(Cn3ccnc3)cc2)cc1OC | 12.2% |
| COC(=O)c1ccc(C)c(NC(=O)COC(=O)C2CC3CCCC(C2)C3=O)c1 (centres unmarked) | 2.4% |
| CC(=O)N(C(C)=O)n1c(/C=C/c2cccc([N+](=O)[O-])c2)nc2ccccc2c1=O | 10.9% |
| Cl.O=C(c1ccco1)N1CCN(CCCCOc2cccc3ccccc23)CC1 | 6.14% |
| COc1ccccc1OCC(=O)N1CCCC(N2CCN(c3ccc(F)cc3)CC2)C1 (centres unmarked) | 4.57% |
| N#Cc1c(Cl)nc(Cl)c2c1CCN(Cc1ccccc1)C2 | 7.79% |
| COc1ccc(Br)cc1/C=N/NC(=O)C(c1ccncc1)N1CCOCC1 (centres unmarked) | 15.7% |
| O=C1CCN(S(=O)(=O)c2ccc(Br)cc2)CCN1 | 9.41% |
| Cc1ccc(NC(=O)O/N=C/c2ccc(F)cc2)cc1 | 8.72% |
| CC(C)Nc1ccc(Nc2ccnc3cc4ccccc4cc23)cc1 | -1.76% |
| COC(=O)Cn1c(N2CCCC2)nc2c1c(=O)n(C)c(=O)n2C | 8.15% |
| Cc1ccc(S(=O)(=O)N(C)C)cc1NC(=S)N1CCc2ccccc21 | 10.3% |
| Cc1cc(NCCCOC(C)C)n2c(nc3ccccc32)c1C#N | 5.2% |
| CSc1ccccc1C(=O)OCC(=O)N1CCCC1=O | -4.4% |
| CN(C)CCNC(=S)Nc1cccc(Cl)c1 | 3.05% |
| Cc1ccc(NC(=S)N(CCN2CCCCC2)Cc2ccco2)cc1C | -6.21% |
